Source: US8927724B2, “Isoxazole beta-lactamase inhibitors” (priority 2012, dated 2015)
Where a name gives a salt, the structure may show the parent alone. For some of these results: At least one structure is not confirmed: it was looked up by name or label, or the drawing left a doubt. Some compounds share one wording; it may come from a single statement. Some entries share one result that the patent states for a list of compounds.

Columns and labels:
KPC-2 β-lactamase = KPC-2 β-lactamase (Klebsiella pneumoniae, UniProt Q9F663); test: Inhibition kinetics of KPC-2 with nitrocefin as reporter substrate; format: biochemical, K. pneumoniae; conditions: KPC-2, 100 μM nitrocefin, 1×PBS pH 7.4, 25° C.
Experimental: Inhibition or inactivation of KPC-2 by test inhibitors was assessed using 100 μM nitrocefin (NCF) as a reporter substrate. Assays were performed in 1×PBS pH 7.4, 0.1 mg/ml BSA, in 96-well half area plates, 50 μl reaction volume. NCF was dissolved in DMSO and diluted in assay buffer. Test inhibitors were dissolved in water or DMSO and serially diluted in the assay with final concentrations between […] The enzyme activity in the presence of varying concentrations of test inhibitor was determined by monitoring the hydrolysis of NCF spectrophotometrically at 486 nm, for 5 minutes, 25° C., using a SpectraMax Plus384 microplate reader with SoftMax Pro software (Molecular Devices). Data analysis was performed using GraphPad Prism (GraphPad Software, Inc.).
Progress curves were fit to a first-order rate decay equation (Eq. 1) to determine kobserved (kobs).
kobs vs. inhibitor concentration [I] curves were then fit to Eq.2 to determine the inhibitor dissociation constant (K) and the first order rate constant of enzyme inactivation at infinite inhibitor concentration (kinact). […] Yt=V0*(1−e^(−kobs^*t))/kobs Eq. 1 Where Y is the absorbance at time t, Vo is the uninhibited enzyme velocity, kobs is the observed rate constant of the enzyme inactivation. kobs=kinact*[I]/([I]+K(1+S/Km)) Eq. 2 Where S is the NCF concentration, Km is the KPC-2 Km for NCF

[1] = test system: bacterial strains that express KPC β-lactamases; test: Synergy MIC / standard BLI potentiation MIC assay, strains expressing KPC β-lactamases; format: cell-based; conditions: at least one KPC strain and/or better spectrum; in the presence of a β-lactam
Experimental: The experimental protocol was performed according to Clinical and Laboratory Standards Institute (CLSI) guidelines with modifications as described below (CLSI guidelines can be derived from the CLSI document M07-A9 published in January 2012: “Methods for Dilution Antimicrobial Susceptibility Tests for Bacteria That Grow Aerobically; Approved Standard-Ninth Edition”).
To prepare for MIC testing, frozen glycerol stocks of clinical isolates (Klebsiella pneumoniae, Eschericia coli, Enterobacter spp, Citrobacter spp, or Pseudomonas aeruginosa) were used to streak for isolated colonies on rich, non-selective, tryptic soy agar containing 5% sheep's blood (TSAB). Frozen glycerol stocks of laboratory engineered, isogenic E. coli strains, which contain cloned β-lactamase expressing plasmids were used to streak for isolated colonies on rich, selective LB agar supplemented with 25 μg/mL tetracycline to maintain the plasmid. All strains were incubated at 37° C. for 18-24 hrs.
On the day of testing, primary cultures were started by scraping off 5-10 colonies from the TSAB plates containing clinical strains or the tetracycline supplemented LB plates containing engineered strains. The clinical strain material was suspended in ˜5 mL of cation adjusted Mueller Hinton Broth (CAMHB) in 14 mL culture tubes. The engineered strain material was suspended in CAMHB (supplemented with 25 μg/mL tetracycline) in 14 mL culture tubes. All strains were incubated at 37° C. with aeration (200 rpm) for ˜2 hrs until the optical density at 600 nm (OD600) was >0.1.
The two compound components of the assay were each diluted in CAMHB and added to the 96-well broth microdilution assay plates. […]
Plates were incubated for 18-20 hours at 37° C. with aeration (200 rpm). Following incubation, growth was confirmed visually placing plates over a viewing apparatus (stand with a mirror underneath) and then OD600 was measured using a SpectraMax 340PC384 plate reader (Molecular Devices, Sunnyvale, Calif.). Growth was defined as turbidity that could be detected with the naked eye or achieving minimum OD600 of 0.1. […]

Chain of KPC-2 β-lactamase (Q9F663 25-293 limits assumed): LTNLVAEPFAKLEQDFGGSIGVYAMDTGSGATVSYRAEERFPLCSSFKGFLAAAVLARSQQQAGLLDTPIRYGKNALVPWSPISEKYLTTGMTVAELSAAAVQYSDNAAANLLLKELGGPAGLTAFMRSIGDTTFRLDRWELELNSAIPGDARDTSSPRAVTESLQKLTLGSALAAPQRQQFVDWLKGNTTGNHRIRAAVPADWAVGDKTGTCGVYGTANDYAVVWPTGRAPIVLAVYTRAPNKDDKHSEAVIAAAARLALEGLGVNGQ

| SMILES | inactivation efficiency (kinact/K) (KPC-2 β-lactamase) [M⁻¹ s⁻¹] | activity and/or spectrum of activity against bacterial strains that express KPC β-lactamases, compared with Avibactam [1] |
| --- | --- | --- |
| C[N+]1(C)CCC(c2cc([C@@H]3CC[C@@H]4CN3C(=O)N4OS(=O)(=O)[O-])no2)CC1 [Compound 626, (2S,5R)-2-(5-(1,1-dimethylpiperidin-1-ium-4-yl)isoxazol-3-yl)-7-oxo-1,6-diazabicyclo[3.2.1]octan-6-yl sulfate] | 100000 to 999000 | more active than Avibactam |
| N=C(N)N[C@H]1C[C@@H](c2cc([C@@H]3CC[C@@H]4CN3C(=O)N4OS(=O)(=O)O)no2)C1 [Compound 617, (2S,5R)-2-(5-((1s,3R)-3-guanidinocyclobutyl)isoxazol-3-yl)-7-oxo-1,6-diazabicyclo[3.2.1]octan-6-yl hydrogen sulfate] | 100000 to 999000 |  |
| C[n+]1ccc(-c2cc([C@@H]3CC[C@@H]4CN3C(=O)N4OS(=O)(=O)[O-])no2)cc1 [Compound 625, (2S,5R)-2-(5-(1-methylpyridin-1-ium-4-yl)isoxazol-3-yl)-7-oxo-1,6-diazabicyclo[3.2.1]octan-6-yl sulfate] | 100000 to 999000 | more active than Avibactam |
| NCCNCCc1cc([C@@H]2CC[C@@H]3CN2C(=O)N3OS(=O)(=O)O)no1 [Compound 620, (2S,5R)-2-(5-(2-((2-aminoethyl)amino)ethyl)isoxazol-3-yl)-7-oxo-1,6-diazabicyclo[3.2.1]octan-6-yl hydrogen sulfate] | 100000 to 999000 |  |
| N=C(N)N1CCC(NCCc2cc([C@@H]3CC[C@@H]4CN3C(=O)N4OS(=O)(=O)O)no2)CC1 [Compound 610, (2S,5R)-2-(5-(2-((1-carbamimidoylpiperidin-4-yl)amino)ethyl)isoxazol-3-yl)-7-oxo-1,6-diazabicyclo[3.2.1]octan-6-yl hydrogen sulfate] | 100000 to 999000 |  |
| NCCNC(=O)c1cc([C@@H]2CC[C@@H]3CN2C(=O)N3OS(=O)(=O)O)no1 [Compound 605, (2S,5R)-2-(5-((2-aminoethyl)carbamoyl)isoxazol-3-yl)-7-oxo-1,6-diazabicyclo[3.2.1]octan-6-yl hydrogen sulfate] | 100000 to 999000 |  |
| N=C(N)N1CC(Cc2cc([C@@H]3CC[C@@H]4CN3C(=O)N4OS(=O)(=O)O)no2)C1 [Compound 619, (2S,5R)-2-(5-((1-carbamimidoylazetidin-3-yl)methyl)isoxazol-3-yl)-7-oxo-1,6-diazabicyclo[3.2.1]octan-6-yl hydrogen sulfate] | 100000 to 999000 |  |
| N=C(N)N1CCC(c2cc([C@@H]3CC[C@@H]4CN3C(=O)N4OS(=O)(=O)O)no2)CC1 [Compound 607, (2S,5R)-2-(5-(1-carbamimidoylpiperidin-4-yl)isoxazol-3-yl)-7-oxo-1,6-diazabicyclo[3.2.1]octan-6-yl hydrogen sulfate] | 100000 to 999000 |  |
| N=C(N)NCCCc1cc([C@@H]2CC[C@@H]3CN2C(=O)N3OS(=O)(=O)O)no1 [Compound 615, (2S,5R)-2-(5-(3-guanidinopropyl)isoxazol-3-yl)-7-oxo-1,6-diazabicyclo[3.2.1]octan-6-yl hydrogen sulfate] | 100000 to 999000 |  |
| N=C(N)NCc1cc([C@@H]2CC[C@@H]3CN2C(=O)N3OS(=O)(=O)O)no1 [Compound 603, (2S,5R)-2-(5-(guanidinomethyl)isoxazol-3-yl)-7-oxo-1,6-diazabicyclo[3.2.1]octan-6-yl hydrogen sulfate] | 100000 to 999000 |  |
| N=C(N)NCCc1cc([C@@H]2CC[C@@H]3CN2C(=O)N3OS(=O)(=O)O)no1 [Compound 604, (2S,5R)-2-(5-(2-guanidinoethyl)isoxazol-3-yl)-7-oxo-1,6-diazabicyclo[3.2.1]octan-6-yl hydrogen sulfate] | 1e+06 to 5e+06 |  |
| N=C(N)NCCNCCc1cc([C@@H]2CC[C@@H]3CN2C(=O)N3OS(=O)(=O)O)no1 [Compound 621, (2S,5R)-2-(5-(2-((2-guanidinoethyl)amino)ethyl)isoxazol-3-yl)-7-oxo-1,6-diazabicyclo[3.2.1]octan-6-yl hydrogen sulfate] | 100000 to 999000 |  |
| O=C1N2C[C@@H](CC[C@H]2c2cc(C3CCNCC3)on2)N1OS(=O)(=O)O [Compound 606, (2S,5R)-7-oxo-2-(5-(piperidin-4-yl)isoxazol-3-yl)-1,6-diazabicyclo[3.2.1]octan-6-yl hydrogen sulfate] | 100000 to 999000 | more active than Avibactam |
